In all, about 33,000 sequences were measured (“E-score (-0.5 to 0.5)”: median about -0.01, highest 2% from about 0.26 on). The list shows a part of the results.
The sequences below were run against Ste12 (UniProt P13574) (assay: PBM E-score (8-mer binding enrichment) (E-score (-0.5 to 0.5)); higher = stronger / more preferred TF binding; most listed sequences are background and not binding sites). Conditions: protein concentration: 200 nM; construct: GST-DNA-binding domain.
Procedure, shortened: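 Yeast transcription factors carrying a GST tag, as full-length proteins or DNA-binding domains, were produced by PURExpress in vitro transcription/translation. About 100-200 nM protein was applied to universal all-10-mer Agilent arrays, double-stranded by primer extension on fresh or once-stripped slides. Bound protein was detected with fluorescent anti-GST, and scans were normalised with masliner. The Universal PBM Analysis Suite gave each ungapped eight-base word, pooled with its reverse complement, an E-score, a modified Wilcoxon-Mann-Whitney statistic.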

| Sequence | PBM E-score |
| --- | --- |
| CCCTCTCC | -0.13 |
| ATATGTGA | 0.0926 |
| CCAGTGGA | -0.208 |
| AGTTGAAA | 0.19 |
| CGTTTTGA | 0.275 |
| CATCTGCG | 0.108 |
| CCAAGAGA | -0.165 |
| AGATGCGA | 0.0971 |
| CTCCGGGA | -0.0314 |
| AAGAAGCC | 0.151 |
| CGAGATTA | 0.148 |
| TCGTGGAA | 0.114 |
| CCATTAAC | 0.037 |
| AGACTCTC | -0.203 |
| GAGTAATA | 0.104 |
| ACATTACT | 0.015 |
| GTTGAAAC | 0.399 |
| TGGCACAA | 0.113 |
| ATAACTGA | 0.053 |
| TACCTAAA | 0.138 |
| GGGCGGAC | 0.0634 |
| CTGTGCGC | 0.0348 |
| AGGTTCAA | 0.0378 |
| ATAGTAGG | -0.0333 |
| CTTCACAC | 0.104 |

| Sequence | PBM E-score |
| --- | --- |
| AGTCCCGA | -0.185 |
| CTCGCTGC | -0.0584 |
| GTCCAACA | -0.0893 |
| CTTATGGC | -0.0784 |
| AAGACCGT | -0.112 |
| CTAGCCGA | -0.00765 |
| TAACTCCA | -0.0982 |
| GCGCCTCC | 0.0245 |
| ACGCTGAA | 0.0183 |
| GGGCTTTA | -0.207 |
| CACTTGTC | -0.0538 |
| ACGTCCGG | -0.0191 |
| AGCATCAA | 0.0282 |
| AGTTAGGC | 0.00744 |
| AACGTCAT | -0.0263 |
| AGCAAACG | -0.0967 |
| ATGAGCGA | 0.0332 |
| ATTTAACC | 0.252 |
| GTTTAGCA | -0.0932 |
| TCTACAGA | -0.082 |
| CACGTTGA | -0.0208 |
| GGTTCGGA | -0.0567 |
| GCGGCACA | 0.0469 |
| GACCCGGC | -0.0043 |
| AAGCGAGA | 0.108 |

| Sequence | PBM E-score |
| --- | --- |
| ACCTCGGA | 0.0604 |
| GCCAGGCC | -0.175 |
| AACTCAAC | 0.0375 |
| GTCATCAA | -0.0512 |
| CAAATGAC | -0.0229 |
| GCGTAGTA | -0.0309 |
| AATAGCAC | -0.262 |
| ATTTTCGC | 0.223 |
| CTGGCACA | 0.0177 |
| ATGGGATG | -0.00677 |
| ACCTAAGG | -0.114 |
| ACCTCTGA | -0.0109 |
| GAGAGGGC | -0.308 |
| AAACGCCG | 0.192 |
| AGTCTAAC | -0.114 |
| GCAACACA | -0.044 |
| AACCATGT | 0.0364 |
| ACCGAATG | 0.0423 |
| GTATCGAC | -0.00788 |
| ATTCACCG | 0.207 |
| CATTTAAC | 0.212 |
| CTCGCCAC | -0.0284 |
| CCCAAGGA | -0.173 |
| AACAATAA | 0.301 |
| ATCACCAT | -0.00836 |

| Sequence | PBM E-score |
| --- | --- |
| CAACGGGG | 0.0122 |
| CCGTCAAG | -0.0586 |
| ACATCAGA | 0.109 |
| AGTGATTC | -0.0998 |
| ACGGTAAT | -0.153 |
| ATCCATAA | 0.167 |
| AAAGGCCC | -0.109 |
| AGCATTCA | -0.0697 |
| GATGCATC | -0.022 |
| ACTAATTC | 0.0758 |
| CAAGGTGC | -0.296 |
| GTAGAGTA | -0.0214 |
| GGTCACAA | -0.022 |
| GACTAATC | -0.0033 |
| GTCCCAAC | 0.0409 |
| ATCTTGGG | -0.16 |
| AACCTGGC | -0.0729 |
| CGAGATGA | -0.00756 |
| CCCCTGGC | -0.159 |
| CAGTGAAG | 0.0774 |
| GGGTACAA | 0.0188 |
| CGGCAAAG | 0.116 |
| ACGTTTCA | 0.48 |
| CGACCGGC | 0.0316 |
| AGCATTGC | -0.118 |

| Sequence | PBM E-score |
| --- | --- |
| GCGAACTA | 0.105 |
| ACCATCAC | -0.0898 |
| AACTCTGT | 0.0572 |
| CGCCTACC | -0.204 |
| AAAATCCA | 0.153 |
| GACTACCC | -0.0874 |
| AATAGGCG | 0.12 |
| AACGGAGG | -0.218 |
| AGACGTGC | -0.0221 |
| GCGTAAGA | 0.0466 |
| AGCCTGTA | -0.109 |
| AATCTGTA | 0.061 |
| ATCACATC | 0.158 |
| ACTTGATC | 0.0858 |
| GGACGTTA | -0.0711 |
| AGCATAAG | 0.0235 |
| GTCCTACA | -0.0419 |
| GCGTTCCC | -0.0494 |
| AGACTGCT | 0.0365 |
| AGATCTGC | -0.0463 |
| AACTAGCA | 0.0602 |
| GTTGGTCA | 0.121 |
| ACATCCTG | 0.102 |
| AGTAATCG | 0.0283 |
| AAACATCT | 0.177 |

| Sequence | PBM E-score |
| --- | --- |
| GGTATCCA | 0.0467 |
| ATATCCCG | -0.0149 |
| AGGCGCAA | 0.0718 |
| TTCCGCAA | 0.116 |
| ATCCGAAG | 0.0493 |
| CGCATTTA | 0.119 |
| CCCAGAGG | -0.244 |
| ATCCCACC | 0.158 |
| CCCGGACG | -0.105 |
| ATCACCAA | 0.0616 |
| AGACCGCC | -0.0285 |
| AATTTACT | 0.217 |
| TAGGGTCA | -0.0331 |
| ACATCGAC | -0.0873 |
| AGCAGTGC | -0.289 |
| TTGCGCAA | -0.151 |
| TAGGCGGA | -0.0248 |
| CGGTGGGC | -0.176 |
| CAACCTTG | 0.0802 |
| AGAACGTG | 0.0165 |
| AATAACAT | 0.12 |
| CTTATTGC | -0.0793 |
| AAGTATGT | 0.0849 |
| CAGGCGCA | -0.132 |
| AACTTCGA | 0.179 |

| Sequence | PBM E-score |
| --- | --- |
| CTCAGATA | 0.0316 |
| CTTCCGCC | -0.0703 |
| ATCATTGA | 0.0805 |
| ATGAGAGC | -0.126 |
| GTATGACA | 0.144 |
| GAACTTAA | 0.115 |
| AGGCACGC | -0.189 |
| TTAACGAA | 0.262 |
| GTTTGCTA | 0.0839 |
| CCACTATC | -0.0847 |
| GTAACATA | 0.218 |
| GTACCCAC | -0.0979 |
| CTTGTAGA | -0.243 |
| CGAACTAG | 0.053 |
| CAGTTTCA | 0.374 |
| CGTCTATC | 0.0468 |
| GAACCCTC | -0.14 |
| GGTTCCGA | 0.111 |
| CATAGTAC | -0.0117 |
| CTGTGCAA | -0.101 |
| CCGTGACC | -0.19 |
| CAGTACTC | -0.16 |
